Screen size: about 39,000 compounds; about 220 (0.56%) showed activity. The list shows a part of the results.
Test system: Escherichia coli K-12 BW25113
Assay: relative growth (OD600 normalised to plate interquartile mean) (fraction); higher = less growth inhibition, active = 0.2 or less
Conditions: 50 µM; LB; incubation time: overnight (16-24 h)
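Also: static incubation at 37 °C against the wild-type strain, values averaged over two biological replicates.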

For C[C@@H]1CCCCO[C@@H](CN(C)C(=O)Nc2cccc3ccccc23)[C@H](C)CN([C@@H](C)CO)C(=O)c2cc(NC(=O)c3ccccc3)ccc2O1, which relative growth is on record?
Its relative growth is inactive: 1.05.

Which relative growth does the source give for COc1ccc(S(=O)(=O)N(C)C[C@@H]2Oc3ccc(NS(=O)(=O)c4ccccc4)cc3CC(=O)N([C@H](C)CO)C[C@H]2C)cc1 here?
Its relative growth is inactive: 0.99.

Cc1noc(C)c1S(=O)(=O)Nc1ccc2c(c1)C(=O)N([C@@H](C)CO)C[C@@H](C)[C@H](CN(C)C(=O)Nc1cccc3ccccc13)OCCCC[C@@H](C)O2 was tested. Which relative growth did it give?
The relative growth was inactive: 1.02.

With C[C@H](CO)N1C[C@H](C)[C@H](CN(C)Cc2ccc(Cl)c(Cl)c2)Oc2ccc(NC(=O)Nc3cccc4ccccc34)cc2CC1=O as the molecule, how does the relative growth read?
Its relative growth is inactive: 1.04.

Which relative growth does the source give for C[C@H]1CN([C@@H](C)CO)C(=O)CCCn2cc(nn2)CO[C@@H]1CN(C)C(=O)Nc1ccccc1C(F)(F)F here?
The relative growth was inactive: 0.97.

Which relative growth does the source give for O=C(O)[C@H]1C[C@@H](CP(=O)(O)O)CCN1 here?
Its relative growth is inactive: 0.983.

For C[C@H]1CN([C@@H](C)CO)C(=O)c2cc(NC(=O)CCCN(C)C)ccc2O[C@H]1CN(C)S(=O)(=O)c1ccc(F)cc1, which relative growth is on record?
Its relative growth is inactive: 0.97.

Which relative growth does the source give for C[C@@H]1CCCCO[C@H](CN(C)S(=O)(=O)c2cccs2)[C@@H](C)CN([C@H](C)CO)C(=O)c2cc(NC(=O)Cc3ccccc3)ccc2O1 here?
The relative growth was inactive: 1.03.

With COc1ccc(S(=O)(=O)N(C)C[C@H]2Oc3ccc(NS(=O)(=O)c4ccc(C)cc4)cc3C(=O)N([C@H](C)CO)C[C@H]2C)cc1 as the molecule, how does the relative growth read?
Its relative growth is inactive: 1.04.

Which relative growth does the source give for COc1ccc([C@@H](NC(=O)C2CCN(Cc3ccc(Oc4ccccc4)cc3)CC2)c2ccccc2C)cn1 here?
Its relative growth is inactive: 1.02.

How did the relative growth turn out when C[C@@H]1CN([C@H](C)CO)S(=O)(=O)c2ccc(C#CCN(C)C)cc2O[C@H]1CN(C)Cc1ccc2c(c1)OCO2 was run?
The relative growth was inactive: 1.

With C[C@H]1CN([C@@H](C)CO)C(=O)c2cccc(NC(=O)c3nc4ccccc4s3)c2O[C@H]1CN(C)Cc1ccc(C(=O)Nc2ccccc2N)cc1 as the molecule, how does the relative growth read?
Its relative growth is inactive: 1.02.

C[C@H](CO)N1C[C@H](C)[C@@H](CN(C)S(=O)(=O)c2ccccc2)Oc2c(NS(C)(=O)=O)cccc2C1=O was tested. Which relative growth did it give?
The relative growth was inactive: 0.977.

How did the relative growth turn out when CO[C@@H]1[C@@H](O[C@@H]2O[C@H](C)[C@@H](O[C@H]3C[C@@](C)(O)[C@@H](O)[C@H](C)O3)[C@H](N(C)C)[C@H]2O)[C@@H](CC=O)C[C@@H](C)[C@@H](O[C@H]2CC[C@H](N(C)C)[C@@H](C)O2)/C=C/C=C/C[C@@H](C)OC(=O)C[C@H]1O was run?
The relative growth was inactive: 0.894.

C[C@@H]1CN([C@H](C)CO)C(=O)c2cc(C#CC3CCCCC3)cnc2O[C@H]1CN(C)C(=O)Cc1ccccn1 was tested. Which relative growth did it give?
Its relative growth is inactive: 0.996.

How did the relative growth turn out when NC1CCN(C(=O)NC2CCCCC2)CC1 was run?
The relative growth was inactive: 0.993.

With COc1ccc(NC(=O)Nc2ccc3c(c2)C(=O)N([C@@H](C)CO)C[C@@H](C)[C@@H](CN(C)C(=O)Nc2ccc4c(c2)OCO4)OCCCC[C@@H](C)O3)cc1 as the molecule, how does the relative growth read?
Its relative growth is inactive: 0.942.

How did the relative growth turn out when C[C@@H]1CN([C@@H](C)CO)C(=O)c2cc(NC(=O)CCC(F)(F)F)ccc2O[C@@H](C)CCCCO[C@H]1CN(C)Cc1ccc(C(F)(F)F)cc1 was run?
Its relative growth is inactive: 1.

How did the relative growth turn out when C[C@@H]1CN([C@@H](C)CO)C(=O)c2cc(NC(=O)CCC(F)(F)F)ccc2O[C@@H](C)CCCCO[C@H]1CN(C)Cc1ccc(C(=O)O)cc1 was run?
The relative growth was inactive: 1.01.

C[C@H](CO)N1C[C@H](C)[C@@H](CN(C)Cc2ccccc2)Oc2ccc(NC(=O)CCCN(C)C)cc2CC1=O was tested. Which relative growth did it give?
The relative growth was inactive: 0.981.

Which relative growth does the source give for C[C@H]1CN([C@@H](C)CO)C(=O)Cc2cc(NC(=O)Nc3ccccc3)ccc2O[C@@H]1CN(C)Cc1ccc(C(F)(F)F)cc1 here?
Its relative growth is inactive: 1.01.

For C[C@@H]1CN([C@@H](C)CO)C(=O)Cc2cc(NS(C)(=O)=O)ccc2O[C@@H]1CN(C)C(=O)Nc1ccc2c(c1)OCO2, which relative growth is on record?
Its relative growth is inactive: 0.975.

For COc1ccc(NC(=O)Nc2ccc3c(c2)C(=O)N([C@H](C)CO)C[C@H](C)[C@H](CN(C)S(=O)(=O)c2c(C)noc2C)OCCCC[C@H](C)O3)cc1, which relative growth is on record?
The relative growth was inactive: 1.05.

For C[C@H](CO)N1C[C@H](C)[C@@H](CN(C)S(=O)(=O)c2ccc(Cl)cc2)OCCCC[C@H](C)Oc2ccc(NS(=O)(=O)c3cccs3)cc2C1=O, which relative growth is on record?
The relative growth was inactive: 1.04.

CC(C)CC#Cc1cnc2c(c1)C(=O)N([C@@H](C)CO)C[C@H](C)[C@@H](CN(C)S(=O)(=O)c1cn(C)cn1)O2 was tested. Which relative growth did it give?
Its relative growth is inactive: 1.

How did the relative growth turn out when C[C@@H]1CN([C@@H](C)CO)C(=O)c2cc(C#C[C@@H](C)O)cnc2O[C@@H]1CN(C)C(=O)CN1CCOCC1 was run?
The relative growth was inactive: 0.994.

With C[C@@H]1CCCCO[C@@H](CN(C)C(=O)C2CCCCC2)[C@H](C)CN([C@H](C)CO)C(=O)c2cc(NC(=O)c3ccccc3)ccc2O1 as the molecule, how does the relative growth read?
Its relative growth is inactive: 1.

How did the relative growth turn out when CC[C@@H](C)c1ccc(NC(=O)c2ccc(N(CC)CC)cc2)cc1 was run?
Its relative growth is inactive: 0.85.

For Cc1ccc(S(=O)(=O)N(C)C[C@H]2OCCCC[C@H](C)Oc3ccc(NC(=O)Nc4ccc(F)cc4)cc3C(=O)N([C@@H](C)CO)C[C@H]2C)cc1, which relative growth is on record?
The relative growth was inactive: 1.01.

Which relative growth does the source give for C[C@@H]1CN([C@H](C)CO)C(=O)Cc2cc(NC(=O)Nc3ccc(C(F)(F)F)cc3)ccc2O[C@H]1CN(C)Cc1ccc(Cl)c(Cl)c1 here?
Its relative growth is inactive: 0.977.

How did the relative growth turn out when CN1CCN(C(=O)C[C@@H]2CC[C@H]3[C@@H](COC[C@@H](O)CN3S(=O)(=O)c3cccc(F)c3)O2)CC1 was run?
Its relative growth is inactive: 0.972.

Which relative growth does the source give for CN(C)CCCNC(=O)C[C@H]1CC[C@H]2[C@@H](COC[C@@H](O)CN2S(=O)(=O)c2ccc(Cl)cc2)O1 here?
Its relative growth is inactive: 0.983.

For C[C@@H]1CN([C@@H](C)CO)C(=O)c2cc(NC(=O)Cc3ccccc3)ccc2O[C@@H](C)CCCCO[C@@H]1CN(C)CC1CCCCC1, which relative growth is on record?
The relative growth was inactive: 0.992.

How did the relative growth turn out when CCS(=O)(=O)N1C[C@]2(C1)CN([C@H](CO)c1c2c2ccc(cc2n1C)OC)S(=O)(=O)c1ccccc1 was run?
Its relative growth is inactive: 0.99.

How did the relative growth turn out when C[C@H]1CN([C@@H](C)CO)C(=O)c2cccc(NS(=O)(=O)c3ccc(F)cc3)c2O[C@H]1CN(C)S(=O)(=O)c1ccc(F)cc1 was run?
Its relative growth is inactive: 0.999.

From the supplement of paper PMC9446081
